Measured values reported in the antibiotic and cytotoxicity screens of Wong et al. (2023).
This is one part of the list.

What follows are molecules tested on HepG2 (assay: cytotoxicity call (relative viability < 0.9)). Details: 10 µM.

SMILES | cytotoxicity call
Oc1cc(C2CCCCC2)cc(C2CCCCC2)c1 | inactive
C[C@@H]1CN([C@@H](C)CO)C(=O)c2cccc(NC(=O)c3ccncc3)c2O[C@@H]1CN(C)Cc1ccc(Oc2ccccc2)cc1 | inactive
C[C@@H]1CN([C@@H](C)CO)C(=O)c2cc(NC(=O)Nc3cccc4ccccc34)ccc2O[C@H]1CN(C)Cc1ccc(Cl)c(Cl)c1 | inactive
[N-]=[N+]=Nc1ccccc1[C@H]1OC(c2ccc(OCCCO)cc2)=N[C@@]1(CCS(=O)(=O)c1ccccc1)C(=O)NC[C@@H](O)CO | inactive
Cc1ccc(S(=O)(=O)N(C)C[C@@H]2OCCCC[C@@H](C)Oc3ccc(NC(=O)c4ccccc4)cc3C(=O)N([C@@H](C)CO)C[C@@H]2C)cc1 | inactive
COc1ccc(CNC(=O)C[C@@H]2CC[C@@H]3[C@H](COc4ccc(NC(=O)C(C)C)cc4C(=O)N3C)O2)cc1 | inactive
